# Assay results reported in the supplement of paper PMC8728848.
# The other results are listed elsewhere or left out.
# B1: Epa7 (Candida glabrata), Q6DTM6_CANGB (protein)
# chain: MGSSHHHHHHSSGLVPRGSHMKDDYSSFLSNNNLGWTDPTEFPLGCSPNVTTPKNGLSMELYSYDLRKNGSYPCWDAAYLDPNYPRTGYKSHRLLAKVDGVTGNINFYYHATKGCTPEIDHLPASYNYPKPLTMTNFTMLLYGYFKPKVTGYHTFTISADDLLFVNFGAGNAFDCCKRESSADDFGNYQAYAVWGSQTAKDDLTVHLDAGLYYPIRIFFNNREYDAELSLTLKTESDSNPVIDFSDYFYSFDDTKDGCPGLVSYDTS
# Assays:
# Assay in all cases: glycan array binding signal (z-score within array); higher = stronger binding
# Conditions in all cases: glycan notation: IUPAC condensed, linker removed
# [1] = target: Neu5Ac(a2-6)GalNAc(b1-4)GlcNAc6S
# Method in brief: (§1)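 The binding signal is a Z-score computed within each array and averaged over linkers. Arrays of the same protein sequence at different concentrations or buffers were also averaged together. Data originate from 3228 arrays in the Consortium for Functional Glycomics database, kept only where the protein sequence was available.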
# [2] = target: Neu5Ac(a2-6)GlcNAc(b1-4)GlcNAc
# Method in brief: as §1
# [3] = target: Neu5Ac(a2-6)GlcNAc(b1-4)GlcNAc(b1-4)GlcNAc
# Method in brief: as §1
# [4] = target: Neu5Ac(a2-8)Neu5Ac
# Method in brief: as §1
# [5] = target: Neu5Ac(a2-8)Neu5Ac(a2-3)Gal(b1-3)GalNAc(b1-4)[Neu5Ac(a2-3)]Gal(b1-4)Glc
# Method in brief: as §1
# [6] = target: Neu5Ac(a2-8)Neu5Ac(a2-3)Gal(b1-3)GalNAc(b1-4)[Neu5Ac(a2-8)Neu5Ac(a2-3)]Gal(b1-4)Glc
# Method in brief: as §1
# [7] = target: Neu5Ac(a2-8)Neu5Ac(a2-3)Gal(b1-4)Glc
# Method in brief: as §1
# [8] = target: Neu5Ac(a2-8)Neu5Ac(a2-3)Gal(b1-4)GlcNAc
# Method in brief: as §1
# [9] = target: Neu5Ac(a2-8)Neu5Ac(a2-3)[Gal(b1-3)GalNAc(b1-4)]Gal(b1-4)Glc
# Method in brief: as §1
# [10] = target: Neu5Ac(a2-8)Neu5Ac(a2-3)[GalNAc(b1-4)]Gal(b1-4)Glc
# Method in brief: as §1
# [11] = target: Neu5Ac(a2-8)Neu5Ac(a2-8)Neu5Ac
# Method in brief: as §1
# [12] = target: Neu5Ac(a2-8)Neu5Ac(a2-8)Neu5Ac(a2-3)Gal(b1-4)Glc
# Method in brief: as §1
# [13] = target: Neu5Ac(a2-8)Neu5Ac(a2-8)Neu5Ac(a2-3)[Gal(b1-3)GalNAc(b1-4)]Gal(b1-4)Glc
# Method in brief: as §1
# [14] = target: Neu5Ac(a2-8)Neu5Ac(a2-8)Neu5Ac(a2-3)[GalNAc(b1-4)]Gal(b1-4)Glc
# Method in brief: as §1
# [15] = target: Neu5Ac(a2-8)Neu5Ac(a2-8)Neu5Ac(a2-8)Neu5Ac(a2-3)[GalNAc(b1-4)]Gal(b1-4)Glc
# Method in brief: as §1
# [16] = target: Neu5Ac(a2-8)Neu5Gc(a2-3)Gal(b1-4)GlcNAc
# Method in brief: as §1
# [17] = target: Neu5Ac(b2-6)Gal(b1-4)GlcNAc
# Method in brief: as §1
# [18] = target: Neu5Ac(b2-6)GalNAc
# Method in brief: as §1
# [19] = target: Neu5Ac9Ac(a2-3)Gal(b1-3)GlcNAc
# Method in brief: as §1
# [20] = target: Neu5Ac9Ac(a2-3)Gal(b1-4)GlcNAc
# Method in brief: as §1
# [21] = target: Neu5Ac9Ac(a2-6)Gal(b1-4)GlcNAc
# Method in brief: as §1
# [22] = target: Neu5Gc(a2-3)Gal(b1-3)GlcNAc
# Method in brief: as §1
# [23] = target: Neu5Gc(a2-3)Gal(b1-3)[Fuc(a1-4)]GlcNAc
# Method in brief: as §1
# [24] = target: Neu5Gc(a2-3)Gal(b1-4)Glc
# Method in brief: as §1
# [25] = target: Neu5Gc(a2-3)Gal(b1-4)GlcNAc
# Method in brief: as §1
# [26] = target: Neu5Gc(a2-3)Gal(b1-4)GlcNAc(b1-3)Gal(b1-4)GlcNAc(b1-2)Man(a1-3)[Neu5Gc(a2-3)Gal(b1-4)GlcNAc(b1-3)Gal(b1-4)GlcNAc(b1-2)Man(a1-6)]Man(b1-4)GlcNAc(b1-4)GlcNAc
# Method in brief: as §1
# [27] = target: Neu5Gc(a2-3)Gal(b1-4)[Fuc(a1-3)]GlcNAc
# Method in brief: as §1
# [28] = target: Neu5Gc(a2-3)Gal(b1-4)[Fuc(a1-4)]GlcNAc
# Method in brief: as §1
# [29] = target: Neu5Gc(a2-6)Gal(b1-4)GlcNAc
# Method in brief: as §1
# [30] = target: Neu5Gc(a2-6)GalNAc
# Method in brief: as §1
# [31] = target: Neu5Gc(a2-8)Neu5Ac(a2-3)Gal(b1-4)GlcNAc
# Method in brief: as §1
# [32] = target: Neu5Gc(a2-8)Neu5Gc(a2-3)Gal(b1-4)GlcNAc
# Method in brief: as §1
# [33] = target: Neu5Gc(a2-8)Neu5Gc(a2-3)Gal(b1-4)GlcNAc(b1-3)Gal(b1-4)GlcNAc
# Method in brief: as §1
# [34] = target: Neu5Gc(a2-8)Neu5Gc(a2-6)Gal(b1-4)GlcNAc
# Method in brief: as §1
# [35] = target: Neu5Gc(b2-6)Gal(b1-4)GlcNAc
# Method in brief: as §1
binder,measurement,setting,value
B1,glycan array binding signal (z-score),[1],-0.237
same,glycan array binding signal (z-score),[2],-0.241
same,glycan array binding signal (z-score),[3],-0.237
same,glycan array binding signal (z-score),[4],-0.248
same,glycan array binding signal (z-score),[5],-0.079
same,glycan array binding signal (z-score),[6],-0.167
same,glycan array binding signal (z-score),[7],-0.257
same,glycan array binding signal (z-score),[8],-0.226
same,glycan array binding signal (z-score),[9],2.79
same,glycan array binding signal (z-score),[10],-0.254
same,glycan array binding signal (z-score),[11],-0.26
same,glycan array binding signal (z-score),[12],-0.259
same,glycan array binding signal (z-score),[13],0.014
same,glycan array binding signal (z-score),[14],-0.258
same,glycan array binding signal (z-score),[15],-0.261
same,glycan array binding signal (z-score),[16],-0.241
same,glycan array binding signal (z-score),[17],-0.236
same,glycan array binding signal (z-score),[18],-0.258
same,glycan array binding signal (z-score),[19],-0.233
same,glycan array binding signal (z-score),[20],-0.239
same,glycan array binding signal (z-score),[21],-0.255
same,glycan array binding signal (z-score),[22],-0.251
same,glycan array binding signal (z-score),[23],-0.15
same,glycan array binding signal (z-score),[24],-0.256
same,glycan array binding signal (z-score),[25],-0.262
same,glycan array binding signal (z-score),[26],-0.231
same,glycan array binding signal (z-score),[27],-0.228
same,glycan array binding signal (z-score),[28],-0.275
same,glycan array binding signal (z-score),[29],-0.253
same,glycan array binding signal (z-score),[30],-0.256
same,glycan array binding signal (z-score),[31],-0.241
same,glycan array binding signal (z-score),[32],-0.237
same,glycan array binding signal (z-score),[33],-0.243
same,glycan array binding signal (z-score),[34],-0.222
same,glycan array binding signal (z-score),[35],-0.224
